# Data reported in PMC4336329 (PLoS ONE, 2015).
# Screen size: about 310,000 compounds; about 2,200 (0.71%) showed an effect of 50% or more. Effects have a minus sign here. The list shows a part of the results.
# Target: human ether-à-go-go-related gene (hERG) potassium channel (human, UniProt Q12809)
# Test: primary screen, population patch clamp on CHO cells stably expressing hERG
# Sequence of human ether-à-go-go-related gene (hERG) potassium channel (Q12809 whole entry, looked up): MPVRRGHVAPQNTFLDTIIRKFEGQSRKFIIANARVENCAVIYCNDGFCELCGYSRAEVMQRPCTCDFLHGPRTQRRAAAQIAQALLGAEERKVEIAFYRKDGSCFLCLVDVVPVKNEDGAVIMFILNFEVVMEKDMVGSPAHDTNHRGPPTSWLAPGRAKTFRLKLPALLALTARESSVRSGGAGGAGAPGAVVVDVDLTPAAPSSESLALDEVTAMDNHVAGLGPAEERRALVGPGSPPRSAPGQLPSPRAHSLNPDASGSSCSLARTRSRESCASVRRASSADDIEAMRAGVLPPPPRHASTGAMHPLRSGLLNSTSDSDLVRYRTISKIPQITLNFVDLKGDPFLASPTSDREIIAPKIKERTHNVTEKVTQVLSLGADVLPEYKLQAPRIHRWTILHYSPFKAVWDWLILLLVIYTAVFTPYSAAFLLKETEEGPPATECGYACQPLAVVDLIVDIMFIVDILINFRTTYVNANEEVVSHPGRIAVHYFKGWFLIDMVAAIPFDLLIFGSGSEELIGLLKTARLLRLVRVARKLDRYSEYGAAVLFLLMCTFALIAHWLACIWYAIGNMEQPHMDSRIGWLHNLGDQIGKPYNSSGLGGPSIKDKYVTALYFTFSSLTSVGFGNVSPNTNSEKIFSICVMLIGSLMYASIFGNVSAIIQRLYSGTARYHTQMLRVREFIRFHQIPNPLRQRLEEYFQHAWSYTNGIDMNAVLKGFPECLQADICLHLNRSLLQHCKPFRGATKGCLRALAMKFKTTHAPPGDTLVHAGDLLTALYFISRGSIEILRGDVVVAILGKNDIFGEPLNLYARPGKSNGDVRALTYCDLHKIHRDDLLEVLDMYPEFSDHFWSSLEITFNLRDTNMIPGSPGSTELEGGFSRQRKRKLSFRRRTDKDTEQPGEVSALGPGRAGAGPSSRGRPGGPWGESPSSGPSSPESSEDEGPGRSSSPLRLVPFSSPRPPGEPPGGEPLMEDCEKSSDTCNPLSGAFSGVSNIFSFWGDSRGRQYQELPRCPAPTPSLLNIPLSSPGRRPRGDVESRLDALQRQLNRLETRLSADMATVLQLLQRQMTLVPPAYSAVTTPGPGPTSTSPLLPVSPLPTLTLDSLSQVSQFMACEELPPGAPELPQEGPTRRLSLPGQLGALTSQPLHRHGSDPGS
row,SMILES,"hERG current change (%, negative = inhibition) at 1uM [%]"
1,O=C(NNc1ccccc1)C(CCO)C(=O)NNc1ccccc1,4.69
2,COc1ccc(OC)c(NC(=O)CSc2ccc3nnc(-c4ccccn4)n3n2)c1,-38.7
3,CCNC(=O)NC(=O)CSc1ccc(NC(C)=O)cc1,1.2
4,COc1ccc(C(=O)n2c(-c3ccco3)nc3ccccc32)cc1,-3.54
5,CC(NC(=O)C(=O)N1CCOCC1)C(c1cccs1)N1CCN(c2ccc(F)cc2)CC1 (centres unmarked),13.1
6,CN1C(=O)C(=Cc2sc(=O)n(-c3ccccc3)c2N(C)C)C(=O)N(C)C1=O,11.9
7,CCOc1ccc(S(=O)(=O)N2CCC(C(=O)OCc3ccc(OC)cc3)CC2)cc1,10.1
8,O=C(Nc1ccccc1OC(F)F)c1ccc(F)cc1,8.03
9,Cn1c(-c2ccccc2)c(/C=N/NC(=O)c2ccc(O)cc2)c2ccccc21,6.98
10,Cc1ccc(C2CC(=O)Oc3cc(O)ccc32)cc1 (centres unmarked),-4.73
11,O=C(N/N=C/c1ccccc1)c1[nH]ncc1Br,15.8
12,O=C(c1cnn2c(C(F)(F)F)cc(-c3ccccc3)nc12)N1CCOCC1,10.3
13,O=C(NCc1ccc(Cl)cc1)c1csc(-c2cccnc2)n1,8.83
14,O=C(O)c1ccc(-c2nc(-c3ccccc3)cs2)cc1,14.3
15,CC(C)(C)N(Cc1ccccc1)C(=O)COC(=O)[C@@H]1CCCN1C(=O)c1cccs1,13.3
16,CC(C)(C)c1ccc(NC(=O)N2CCCN(c3ccc([N+](=O)[O-])cn3)CC2)cc1,-7.9
17,Cc1ccc(-n2c(SCC(N)=O)nnc2-c2cnccn2)cc1,19
18,CCc1ccc2nc3sc(C(=O)Nc4nnc(CC)s4)c(N)c3cc2c1,17
19,COc1cc2c(cc1OC)CN(C(=O)/C=C/c1ccccc1[N+](=O)[O-])CC2,15.3
20,O=C(N/N=C\c1ccccc1)c1sccc1-n1cccc1,0.439
21,CSCCC(NS(=O)(=O)c1ccc(C)cc1)C(=O)N1CC=C(c2ccccc2)CC1 (centres unmarked),9.55
22,COc1ccc(/C=N/NC(=O)c2ccccc2O)cc1Cn1nnc2ccccc21,2.55
23,CCOc1ccc(N(C(=O)Cn2nnc3ccccc32)C(C(=O)NC(C)(C)CC)c2cccn2C)cc1 (centres unmarked),16.4

row,SMILES,"hERG current change (%, negative = inhibition) at 1uM [%]"
1,O=C(c1cnn2c1NC(c1ccc(Br)cc1)CC2C(F)(F)F)N1CCN(C23CC4CC(CC(C4)C2)C3)CC1 (centres unmarked),6.87
2,CCNS(=O)(=O)c1ccc2c(c1)n(C)c(=O)n2C,6.51
3,COC(=O)CSc1ncnc2scc(-c3ccccc3)c12,-0.407
4,Cc1ccc(C(=O)N/C(=C/c2ccc(F)cc2)C(=O)NCc2ccncc2)cc1,-78.4
5,CCCOc1ccc(CSC2=NCCN2)cc1[N+](=O)[O-],-53.5
6,O=C(O)CCC(=O)NC1CCCCC1,5.23
7,O=C(CCC(=O)N1CCN(S(=O)(=O)c2ccc3ccccc3c2)CC1)NCC(F)(F)F,17.6
8,N#Cc1ccc(NC(=O)COC(=O)CSc2nnc(-c3ccc(Cl)cc3)o2)cc1,6.91
9,CCOc1ccc(NC(=O)CCN2C(=O)c3cccc([N+](=O)[O-])c3C2=O)cc1,11.2
10,Cc1ccc(NC(=O)NC(=O)c2ccccc2)cc1F,13.8
11,O=C(O)CC(CCc1ccccc1)OC1OC(CO)C(O)C(O)C1O (centres unmarked),12.2
12,Cc1cccc(NC2=C(Cl)C(=O)OC2NC(=O)c2ccccc2)c1 (centres unmarked),1.26
13,Clc1ccc(-c2cc(C3CCNCC3)[nH]n2)cc1,2.58
14,COCCNC(=O)COc1ccc(Oc2ccccc2)cc1,5.92
15,CS(=O)(=O)N1CCc2cc(-c3csc(NC(=O)C(c4ccccc4)c4ccccc4)n3)ccc21,8.72
16,Clc1ccc(OCc2nc(-c3ccncc3)no2)c(Br)c1,8.56
17,COC(=O)C1=C(C)NC(=S)N(C(C)=O)C1c1ccccc1 (centres unmarked),-3.49
18,CC1CCCC(NC(=O)CCCn2c(=S)[nH]c3ccccc3c2=O)C1C (centres unmarked),5.25
19,O=C(CNCCC1=CCCCC1)Nc1ccccc1N1CCCCC1.O=C(O)C(=O)O,11.8
20,CC1CCN(C(=O)c2[nH]cnc2C(=O)NCc2ccc(CNC(=O)OC(C)(C)C)cc2)CC1,13.2
21,CCOC(=O)CCn1c2nc(C)cc(C)c2c(=O)n1-c1ccccc1,2.21
22,O=C(NC(=S)NCC1CCCO1)c1cccs1 (centres unmarked),18.2
23,NC(=O)Cn1c(O)c(N=NC(=O)CNC(=O)/C=C/c2ccccc2)c2ccccc21,14.6

row,SMILES,"hERG current change (%, negative = inhibition) at 1uM [%]"
1,CN(C)c1ccc(-c2sc(Nc3ccccc3)n[n+]2-c2ccc(F)cc2)cc1.[Cl-],-15
2,N#Cc1sc2nc(-c3cccs3)cc(-c3ccc(F)cc3)c2c1N,12.8
3,COc1cc(OC)cc(C(=O)NCC2CCCO2)c1 (centres unmarked),9.15
4,NS(=O)(=O)c1ccc(CCNC(=O)CC(NC(=O)c2ccccc2Cl)c2ccccc2)cc1 (centres unmarked),10.4
5,CCOc1ccccc1C(=O)N1CCN=C1SCc1cccnc1,0.321
6,Cc1ccc(OCC(=O)Nc2ccon2)c([N+](=O)[O-])c1,10.8
7,COc1ccc(Cl)cc1NC(=O)COC(=O)C(CC(C)C)N1C(=O)C2CC=CCC2C1=O (centres unmarked),11.7
8,CC1CCC(C(C)C)C(OCC(O)CN2CCCC(C)C2)C1.Cl (centres unmarked),1.25
9,Cc1sc(NC(=O)Cc2ccc3c(c2)OCO3)nc1-c1ccc2c(c1)CCN2C(=O)c1ccc(F)cc1,-0.224
10,COc1ccccc1Cc1noc(C(C)(C)NC(=O)c2ccccc2)n1,5.38
11,CC(C)(C)c1ccc(/C=N/n2cnnc2)cc1,15
12,COc1ccc(/C=N\NC(=O)CCN2CCN(c3ccccc3)CC2)cc1OC,-28.9
13,CCOc1cccc(OCCCOc2cccc3cccnc23)c1,8.16
14,COc1ccc(CN2C3CCCC2CC(NC(=O)/C=C/c2ccccc2)C3)cc1 (centres unmarked),-84.2
15,CC(C)(C)CC(=O)Nc1ccc(-c2cn3cccnc3n2)cc1,8.99
16,CSc1ncc(Cl)c(C(=O)C(C#N)c2nc3c(C)cc(C)cc3c(=O)[nH]2)n1 (centres unmarked),13.6
17,Cc1ccc2cccc(SCC(=O)NCc3ccco3)c2n1,11.5
18,Cc1cccc(NC2=NC3(CCCCC3)N=C(N)N2)c1C,11.6
19,O=C(COc1ccc(S(=O)(=O)N2CCOCC2)cc1Cl)NC1CC1,-13.5
20,CC(=O)Nc1ccc2c(c1)CCc1ccccc1-2,12.1
21,O=C(NCc1cccnc1)C1CCCN1S(=O)(=O)c1ccc(Cl)cc1 (centres unmarked),-3.54
22,C#CCN(C(=O)c1ccc(OC)c(OC2CCN(C(C)C)CC2)c1)C1CCCCC1,-12.1
23,Cc1cc(C)n(CCc2nc(-c3ccc(C(C)(C)C)cc3)cs2)n1,9.29

row,SMILES,"hERG current change (%, negative = inhibition) at 1uM [%]"
1,COc1cc(C2C=C(Nc3ccccc3)C(=O)N2c2ccccc2)ccc1O (centres unmarked),5.01
2,Nc1nc(-c2ccc(F)cc2)cs1,-0.647
3,CC(=O)C12OC1CC1C3CCC4=CC(=O)CCC4(C)C3CCC12C (centres unmarked),4
4,CCOC(=O)N1CCC(NC(=O)c2cc3c(=O)[nH]c4ccccc4c3n2C)CC1,-6.01
5,COC(=O)c1ccc(C2C(C(C)=O)=C(O)C(=O)N2CCO)cc1 (centres unmarked),6.53
6,CC(=O)Nc1c2c(nn1-c1cccc(Cl)c1)CS(=O)(=O)C2,8.36
7,Cc1cc(C(=O)NC(C)c2ccc3c(c2)OCO3)cs1 (centres unmarked),-3.5
8,CCN(CC)C(=O)c1cccc2c1C(=O)c1ccccc1-2,9.86
9,CC1CCCN(C(=O)CCS(=O)(=O)c2cc3c(cc2Cl)NC(=O)CO3)C1 (centres unmarked),-1.43
10,Cc1nn(C)c(C)c1CNC(=O)Nc1ccc(Cl)cc1,4.96
11,COc1ccc(/C=N/NS(=O)(=O)c2ccccc2)cc1OS(=O)(=O)c1ccccc1,13.8
12,N=C(N)c1ccc(/C=C/c2ccc(C(=N)N)cc2O)cc1.O=S(=O)(O)CCO,8.45
13,O=C(Nc1ccc(S(=O)(=O)Nc2cnc3ccccc3n2)cc1)c1ccccc1Br,11.6
14,O=C(COc1ccccc1)NC1CCCN(Cc2ccccc2F)C1 (centres unmarked),3.63
15,CN(C(=O)CS(=O)(=O)Cc1ccccc1Cl)c1ccccc1,14.7
16,C=CCn1c(NCc2c[nH]c3ccccc23)nc2ccccc21,2.41
17,Cc1cc(C)n(-c2nc(C)nc3c2cnn3-c2ccccc2)n1,14.5
18,CCOc1ccc(N(CC(=O)NC2CCCCCC2)S(=O)(=O)c2c(C)noc2C)cc1,-8.01
19,COc1cc2c(cc1OC)C(c1cccs1)N(C(=S)NC(C)C)CC2 (centres unmarked),10.7
20,Cc1cc(S(=O)(=O)N2CCN(c3ccccc3O)CC2)c(C)s1,8.12
